# From PMC6919601, “Identification of Plasmodium dipeptidyl aminopeptidase allosteric inhibitors by high throughput screening” (PLoS ONE, 2019)
# About 230 (0.21%) of roughly 110,000 compounds showed an effect of 50% or more. The list shows a part of the results.
# Molecular target: DPAP1 (Plasmodium falciparum, UniProt Q8IIJ9)
# Assay: primary screen, percent inhibition; read by cleavage of a fluorogenic dipeptide substrate; higher = more effect of the substance
# Parameters: species or system P. falciparum D10 trophozoite lysates; single well
# 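Note: 30 min substrate incubation versus DMSO and 10 µM JCP410 controls.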
# DPAP1, sequence (Q8IIJ9 whole entry, looked up): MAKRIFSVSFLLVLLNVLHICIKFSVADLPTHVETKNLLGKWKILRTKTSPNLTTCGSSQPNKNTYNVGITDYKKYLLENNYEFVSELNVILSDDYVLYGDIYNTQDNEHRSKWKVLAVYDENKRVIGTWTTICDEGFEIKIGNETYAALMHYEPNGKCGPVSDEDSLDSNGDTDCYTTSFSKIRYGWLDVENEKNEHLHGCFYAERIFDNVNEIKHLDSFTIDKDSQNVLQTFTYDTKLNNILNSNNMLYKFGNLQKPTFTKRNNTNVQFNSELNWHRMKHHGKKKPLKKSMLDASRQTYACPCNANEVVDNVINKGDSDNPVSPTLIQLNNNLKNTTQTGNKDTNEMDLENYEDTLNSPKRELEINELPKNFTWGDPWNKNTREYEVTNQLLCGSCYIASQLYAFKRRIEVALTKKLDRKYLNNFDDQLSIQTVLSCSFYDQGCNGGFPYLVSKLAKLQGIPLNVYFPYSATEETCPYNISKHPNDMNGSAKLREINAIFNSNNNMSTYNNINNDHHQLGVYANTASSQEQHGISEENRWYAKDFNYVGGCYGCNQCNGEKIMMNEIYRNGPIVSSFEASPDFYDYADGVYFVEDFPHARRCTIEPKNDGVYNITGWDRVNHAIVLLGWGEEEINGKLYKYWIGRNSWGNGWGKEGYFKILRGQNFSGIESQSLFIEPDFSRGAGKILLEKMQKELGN
row,SMILES,% Inhibition @ 10 uM [%]
1,CCc1nn(CC(=O)NCc2cc(OC)ccc2OC)c(=O)c2cc3c(OC)cccc3n12,4.84
2,CC(=O)c1c(C(C)=O)c(C)n(-c2cc(C)c(C)cc2N)c1C,3.29
3,O=C(NCCc1ccc(Cl)cc1)c1oc(=O)c2ccccc2c1-c1ccccc1,-3.35
4,Cc1ccc(-c2noc(CN(C(=O)c3ccc(Br)o3)C(C)C)n2)cc1,1.38
5,CSc1nc(/C=C2\C=Nc3ccccc32)c(O)n1C,-4.67
6,Cc1ccc(O)c(NC(=O)c2cc3nc(-c4ccc(F)cc4)cc(C)n3n2)c1,-2.97
7,Cc1cc(C=C2C(=O)c3ccccc3C2=O)c(C)n1-c1cccc(C(=O)O)c1,6.89
8,CCOc1cc(C#N)c(Br)cc1OCC(=O)Nc1ccccc1OC,-6.02
9,CCSc1nnc(-c2ccc(C)cc2)c2ccccc12,6.23
10,Cc1nc2c(C(=O)NCCC3=CCCCC3)cnn2c(O)c1Cl,2.9
11,Cc1csc2nc(CNS(=O)(=O)c3ccc(Cl)s3)cn12,5.65
12,CC(=O)C1=C(C)N=C(S)NC1c1ccccc1O (centres unmarked),-5.5
13,Cc1ccc2oc(C(=O)Nc3nc4ccc(F)cc4s3)cc(=O)c2c1,-1.47
14,CCOC(=O)c1c(NC(=O)c2ccc(Cn3nc(C)c(Br)c3C)cc2)sc(C)c1C,2.1
15,O=C1N=C(Nc2ccccn2)SC1Cc1ccc(Br)cc1 (centres unmarked),-4.16
16,N#CC1=C(N)Oc2[nH]nc(-c3ccncc3)c2C1c1ccc(O)cc1 (centres unmarked),4.33
17,CSc1nc(O)c(Cc2ccccc2)c(O)n1,-3.94
18,CC(NC(=O)c1nc(-c2ccc(C(F)(F)F)cc2)no1)c1ccccc1 (centres unmarked),-1.24
19,O=C(O)CNC1CCS(=O)(=O)C1 (centres unmarked),0.627
20,CC(C)(C)c1ccc(C(CC(=O)O)NC(=O)Cc2ccc(F)cc2)cc1 (centres unmarked),-6.28
21,CC1(C)CC(=O)C2=C(C1)N(Cc1ccco1)C(=O)NC2(C(F)(F)F)C(F)(F)F,1.91
22,CC(=O)N1CCc2c(sc3c2c(=O)n(Cc2ccccc2)c(=O)n3Cc2ccccc2C#N)C1,0.0579
23,Oc1ccc2ccccc2c1CN1CCN(Cc2ccccc2)CC1,6.33
24,c1ccc(OCCn2c(N3CCOCC3)nc3ccccc32)cc1,0.627
25,N#Cc1nc(COc2ccccc2F)oc1NCCCn1ccnc1,-0.99

row,SMILES,% Inhibition @ 10 uM [%]
1,CC(C)Oc1ccc(CNC(=O)c2ccc(CS(=O)Cc3ccc(Cl)cc3)o2)cc1 (centres unmarked),-3.02
2,COc1ccc2c(C)c(CCC(=O)N3CCOCC3)c(=O)oc2c1C,-2.57
3,O=C(Cn1cnc2c(nnn2-c2ccc(F)cc2)c1=O)N1CCOCC1,-2.16
4,COc1ccc(S(=O)(=O)NC(C)C)cc1C(=O)N1CCOCC1,1.32
5,Fc1ccc(-c2nnc(S)n2CCCN2CCOCC2)cc1,-3.87
6,COc1ccc(OC)c(NC(=O)CN(C2CCCCC2)S(C)(=O)=O)c1,0.408
7,COC(=O)C1=C(C)N(CCc2ccccc2)C(=O)/C1=C\c1cccs1,-15.6
8,O=C(NCc1cccnc1)c1cc(S(=O)(=O)N2CCCCC2)ccc1Cl,11.7
9,CCc1ccc(CNCc2c(C(=O)O)n(C)c3cc(OC)ccc23)cc1,-0.712
10,C=CCN(C(=O)C1CCC(CNS(=O)(=O)c2cccc3nsnc23)CC1)C1CCCCC1 (centres unmarked),-0.465
11,CCOc1ccc(NC(=O)C2CC(=O)N(CC)/C(=N/c3cccc(F)c3)S2)cc1 (centres unmarked),-6.94
12,Cc1ccc(C(C)C)c(OC/C(O)=C(\C#N)c2nc3ccccc3[nH]2)c1,-3.78
13,COc1ccc(-c2c3c(=O)n(C)c(=O)n(C)c3cn2-c2cccc(C#N)c2)cc1,0.366
14,NS(=O)(=O)c1ccc(CCNC(=O)c2cc(-c3cccs3)nc3ccccc23)cc1,-5.67
15,OC1CCN(Cc2ccc(F)cc2)C1 (centres unmarked),-5.31
16,COc1cc2c(cc1OC)CN(S(=O)(=O)c1ccc(OC(F)(F)F)cc1)CC2,0.248
17,Cc1n[nH]c(C)c1S(=O)(=O)N1CCCC(C(=O)Nc2nccs2)C1 (centres unmarked),2.39
18,COc1ccc(/C=C2\CCc3ccccc3C2=O)cc1Br,0.287
19,O=C(Nc1ccccc1F)C(F)(F)C(F)(F)C(=O)Nc1ccccc1F,8.05
20,COCc1nn2cc(-c3cccc(OC)c3)nc2s1,2.41
21,Cc1cc(-c2ccccc2)nc2cc(C(=O)O)nn12,-5.28
22,COc1ccc(NC(=O)c2cccc(OC(F)F)c2)c(C)c1,-5.6
23,CCC(C)c1ccccc1OCC(=O)Nc1ccc(S(=O)(=O)N2CCOCC2)cc1 (centres unmarked),1.57
24,O=C1C(Cl)=C(Nc2ccccc2O)C(=O)N1c1cccc(Cl)c1,-1.07
25,Cn1ncc2c(NCCO)ncnc21,0.925
